This is one part of the list.
How the values were obtained:
Assay in all cases: glycan array binding signal (z-score within array); higher = stronger binding
Conditions in all cases: glycan notation: IUPAC condensed, linker removed
[1] = biological target: GlcNAc(b1-3)Gal(b1-4)Glc
Procedure, shortened: (§1)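 The binding signal is a Z-score computed within each array and averaged over linkers. Arrays of the same protein sequence at different concentrations or buffers were also averaged together. Data originate from 3228 arrays in the Consortium for Functional Glycomics database, kept only where the protein sequence was available.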

[2] = biological target: GlcNAc(b1-3)Gal(b1-4)GlcNAc
Procedure, shortened: as §1

[3] = biological target: GlcNAc(b1-3)Gal(b1-4)GlcNAc(b1-2)Man(a1-3)[GlcNAc(b1-3)Gal(b1-4)GlcNAc(b1-2)Man(a1-6)]Man(b1-4)GlcNAc(b1-4)GlcNAc
Procedure, shortened: as §1

[4] = biological target: GlcNAc(b1-3)Gal(b1-4)GlcNAc(b1-2)Man(a1-3)[GlcNAc(b1-3)Gal(b1-4)GlcNAc(b1-2)Man(a1-6)]Man(b1-4)GlcNAc(b1-4)[Fuc(a1-6)]GlcNAc
Procedure, shortened: as §1

[5] = biological target: GlcNAc(b1-3)Gal(b1-4)GlcNAc(b1-2)[GlcNAc(b1-3)Gal(b1-4)GlcNAc(b1-6)]Man(a1-6)[GlcNAc(b1-3)Gal(b1-4)GlcNAc(b1-2)Man(a1-3)]Man(b1-4)GlcNAc(b1-4)GlcNAc
Procedure, shortened: as §1

[6] = biological target: GlcNAc(b1-3)Gal(b1-4)GlcNAc(b1-3)Gal(b1-4)GlcNAc
Procedure, shortened: as §1

[7] = biological target: GlcNAc(b1-3)Gal(b1-4)GlcNAc(b1-3)Gal(b1-4)GlcNAc(b1-2)Man(a1-3)[GlcNAc(b1-3)Gal(b1-4)GlcNAc(b1-3)Gal(b1-4)GlcNAc(b1-2)Man(a1-6)]Man(b1-4)GlcNAc(b1-4)GlcNAc
Procedure, shortened: as §1

[8] = biological target: GlcNAc(b1-3)Gal(b1-4)GlcNAc(b1-3)Gal(b1-4)GlcNAc(b1-2)Man(a1-3)[GlcNAc(b1-3)Gal(b1-4)GlcNAc(b1-3)Gal(b1-4)GlcNAc(b1-2)Man(a1-6)]Man(b1-4)GlcNAc(b1-4)[Fuc(a1-6)]GlcNAc
Procedure, shortened: as §1

[9] = biological target: GlcNAc(b1-3)Gal(b1-4)GlcNAc(b1-3)Gal(b1-4)GlcNAc(b1-2)[GlcNAc(b1-3)Gal(b1-4)GlcNAc(b1-3)Gal(b1-4)GlcNAc(b1-6)]Man(a1-6)[GlcNAc(b1-3)Gal(b1-4)GlcNAc(b1-3)Gal(b1-4)GlcNAc(b1-2)Man(a1-3)]Man(b1-4)GlcNAc(b1-4)[Fuc(a1-6)]GlcNAc
Procedure, shortened: as §1

[10] = biological target: GlcNAc(b1-3)Gal(b1-4)GlcNAc(b1-3)Gal(b1-4)GlcNAc(b1-3)Gal(b1-4)GlcNAc(b1-2)Man(a1-3)[GlcNAc(b1-3)Gal(b1-4)GlcNAc(b1-3)Gal(b1-4)GlcNAc(b1-3)Gal(b1-4)GlcNAc(b1-2)Man(a1-6)]Man(b1-4)GlcNAc(b1-4)GlcNAc
Procedure, shortened: as §1

[11] = biological target: GlcNAc(b1-3)Gal(b1-4)GlcNAc(b1-3)Gal(b1-4)GlcNAc(b1-3)Gal(b1-4)GlcNAc(b1-2)Man(a1-3)[GlcNAc(b1-3)Gal(b1-4)GlcNAc(b1-3)Gal(b1-4)GlcNAc(b1-3)Gal(b1-4)GlcNAc(b1-2)Man(a1-6)]Man(b1-4)GlcNAc(b1-4)[Fuc(a1-6)]GlcNAc
Procedure, shortened: as §1

[12] = biological target: GlcNAc(b1-3)Gal(b1-4)GlcNAc(b1-3)Gal(b1-4)GlcNAc(b1-3)Gal(b1-4)GlcNAc(b1-2)[GlcNAc(b1-3)Gal(b1-4)GlcNAc(b1-3)Gal(b1-4)GlcNAc(b1-3)Gal(b1-4)GlcNAc(b1-6)]Man(a1-6)[GlcNAc(b1-3)Gal(b1-4)GlcNAc(b1-3)Gal(b1-4)GlcNAc(b1-3)Gal(b1-4)GlcNAc(b1-2)Man(a1-3)]Man(b1-4)GlcNAc(b1-4)[Fuc(a1-6)]GlcNAc
Procedure, shortened: as §1

[13] = biological target: GlcNAc(b1-3)Gal(b1-4)GlcNAc(b1-3)Gal(b1-4)GlcNAc(b1-3)Gal(b1-4)GlcNAc(b1-3)Gal(b1-4)GlcNAc(b1-2)Man(a1-3)[GlcNAc(b1-3)Gal(b1-4)GlcNAc(b1-3)Gal(b1-4)GlcNAc(b1-3)Gal(b1-4)GlcNAc(b1-3)Gal(b1-4)GlcNAc(b1-2)Man(a1-6)]Man(b1-4)GlcNAc(b1-4)GlcNAc
Procedure, shortened: as §1

[14] = biological target: GlcNAc(b1-3)Gal(b1-4)GlcNAc(b1-3)Gal(b1-4)GlcNAc(b1-3)Gal(b1-4)GlcNAc(b1-3)Gal(b1-4)GlcNAc(b1-2)Man(a1-3)[GlcNAc(b1-3)Gal(b1-4)GlcNAc(b1-3)Gal(b1-4)GlcNAc(b1-3)Gal(b1-4)GlcNAc(b1-3)Gal(b1-4)GlcNAc(b1-2)Man(a1-6)]Man(b1-4)GlcNAc(b1-4)[Fuc(a1-6)]GlcNAc
Procedure, shortened: as §1

[15] = biological target: GlcNAc(b1-3)Gal(b1-4)GlcNAc(b1-3)Gal(b1-4)GlcNAc(b1-3)Gal(b1-4)GlcNAc(b1-3)Gal(b1-4)GlcNAc(b1-2)[GlcNAc(b1-3)Gal(b1-4)GlcNAc(b1-3)Gal(b1-4)GlcNAc(b1-3)Gal(b1-4)GlcNAc(b1-3)Gal(b1-4)GlcNAc(b1-6)]Man(a1-6)[GlcNAc(b1-3)Gal(b1-4)GlcNAc(b1-3)Gal(b1-4)GlcNAc(b1-3)Gal(b1-4)GlcNAc(b1-3)Gal(b1-4)GlcNAc(b1-2)Man(a1-3)]Man(b1-4)GlcNAc(b1-4)[Fuc(a1-6)]GlcNAc
Procedure, shortened: as §1

[16] = biological target: GlcNAc(b1-3)Gal(b1-4)GlcNAc(b1-3)Gal(b1-4)GlcNAc(b1-3)GalNAc
Procedure, shortened: as §1

[17] = biological target: GlcNAc(b1-3)Gal(b1-4)GlcNAc(b1-3)GalNAc
Procedure, shortened: as §1

[18] = biological target: GlcNAc(b1-3)Gal(b1-4)GlcNAc(b1-3)[GlcNAc(b1-3)Gal(b1-4)GlcNAc(b1-3)]GalNAc
Procedure, shortened: as §1

[19] = biological target: GlcNAc(b1-3)Gal(b1-4)GlcNAc(b1-6)[Gal(b1-3)]GalNAc
Procedure, shortened: as §1

[20] = biological target: GlcNAc(b1-3)Gal(b1-4)GlcNAc(b1-6)[GlcNAc(b1-3)Gal(b1-3)]GalNAc
Procedure, shortened: as §1

[21] = biological target: GlcNAc(b1-3)Gal(b1-4)GlcNAc(b1-6)[GlcNAc(b1-3)]Gal(b1-4)GlcNAc
Procedure, shortened: as §1

[22] = biological target: GlcNAc(b1-3)GalNAc
Procedure, shortened: as §1

B1: EULS2 M4 (Oryza sativa) (protein)
chain: MVYCRANPNYAMTARNGAVVLAPANPKDEYQHWIKDMRWSTSIKDEEGYPAFALVNKATGQAIKHSLGQSHPVRLVPYNPEVMDESVLWTESRDVGNGFRCIRMVNNIYLNFDAFHGDKYHGGVRDGTDIVLWKWCEGDSLRWKIQPYYILEQKLISEEDLNSAVDHHHHHH
- glycan array binding signal (z-score) [1]: -0.248
- glycan array binding signal (z-score) [2]: -0.37
- glycan array binding signal (z-score) [3]: -0.555
- glycan array binding signal (z-score) [4]: -0.274
- glycan array binding signal (z-score) [5]: 0.417
- glycan array binding signal (z-score) [6]: -0.562
- glycan array binding signal (z-score) [7]: 0.167
- glycan array binding signal (z-score) [8]: -0.235
- glycan array binding signal (z-score) [9]: -0.364
- glycan array binding signal (z-score) [10]: -0.118
- glycan array binding signal (z-score) [11]: -0.034
- glycan array binding signal (z-score) [12]: -0.526
- glycan array binding signal (z-score) [13]: -0.223
- glycan array binding signal (z-score) [14]: -0.185
- glycan array binding signal (z-score) [15]: -0.528
- glycan array binding signal (z-score) [16]: 0.729
- glycan array binding signal (z-score) [17]: 0.752
- glycan array binding signal (z-score) [18]: -0.341
- glycan array binding signal (z-score) [19]: -0.431
- glycan array binding signal (z-score) [20]: -0.505
- glycan array binding signal (z-score) [21]: -0.401
- glycan array binding signal (z-score) [22]: -0.116

Reference: the supplement of paper PMC8728848
